Experimental findings from the supplement of paper PMC11880418 are described below.

Where a name gives a salt, the structure may show the parent alone. The list shows a part of the results. The data scatter; read single values as rough. Non-standard residues stand in square brackets, D forms with d. Residues, ends and D or L forms follow the SMILES beside them. *: point of attachment. Sta = CC(C)C[C@H](N)[C@@H](O)CC(=O)O; Isovaleryl = CC(C)CC(=O)*
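Further: High-content imaging of ALDEFLUOR-stained cells with Hoechst-labelled nuclei in 384-well plates, triplicate wells, scored as Z-score against 0.1% DMSO vehicle, negative meaning fewer ALDHbr cells.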

The subject of the assay is MKN45. Briefly: ALDHbr (CSC) cell proportion score relative to DMSO vehicle (ratio to DMSO); breast (SUM159) / gastric (MKN45) / pancreatic (PANC1) / colon cancer lines; ALDHbr cells have high ALDH activity and are rich in cancer stem cells (CSC); higher = more CSC (ALDHbr) cells remaining. The conditions noted are these: 10 µM; 72 h.
With `CN(C)[C@@H]1C(=O)C(C(=O)NCNCCCC[C@H](N)C(=O)O)=C(O)[C@@]2(O)C(=O)C3=C(O)c4c(O)cccc4[C@@](C)(O)[C@H]3C[C@@H]12` [Lymecycline], the ALDHbr came to 1.21.

For the molecule `CC(C(=O)O)c1ccc(C(=O)c2ccccc2)s1` (stereo unspecified) [Tiaprofenic acid], the ALDHbr came out at 1.12.

Consider `CCN(CC)CCc1nc(-c2ccccc2)no1` [Oxalamine citrate salt], for which the ALDHbr turned out to be 0.896.

Turning to `Cc1cc(=O)oc2cc(O)ccc12` [Hymecromone], the ALDHbr turned out to be 0.848.

For the molecule `NCCCCCC(=O)O` [Aminocaproic acid], the ALDHbr turned out to be 0.947.

Turning to `CC1=Nc2ccc(Cl)cc2S(=O)(=O)N1` [Diazoxide], the ALDHbr was determined as 0.919.

Regarding `CC(Oc1c(Cl)cccc1Cl)C1=NCCN1` (stereo unspecified) [Lofexidine], the ALDHbr came to 1.09.

For the molecule `CC(=O)OCC1=C(C(=O)O)N2C(=O)[C@@H](NC(=O)Cc3cccs3)[C@H]2SC1` [Cephalothin sodium salt], the ALDHbr was 1.08.

For `CC(C(=O)O)c1ccc2c(c1)[nH]c1ccc(Cl)cc12` (stereo unspecified) [Carprofen], the ALDHbr came out at 1.2.

Take `CC(C)NC[C@H](O)COc1cccc2ccccc12` [(S)-propranolol hydrochloride]: the ALDHbr stood at 1.29.

For the molecule `CC(C)CC(=O)N[C@H](C(=O)N[C@H](C(=O)N[C@@H](CC(C)C)[C@@H](O)CC(=O)N[C@@H](C)C(=O)N[C@@H](CC(C)C)[C@@H](O)CC(=O)O)C(C)C)C(C)C` [Pepstatin A] (Isovaleryl-VV[Sta]A[Sta]-OH), the ALDHbr amounted to 1.21.

For the molecule `COCCOC(=O)C1=C(C)NC(C)=C(C(=O)OC/C=C/c2ccccc2)C1c1cccc([N+](=O)[O-])c1` (stereo unspecified) [Cilnidipine], the ALDHbr was 1.29.

Turning to `CCOC(=O)C1=C[C@]2(CC)CCCN3CCc4c(n1c1ccccc41)[C@@H]32` [Vinpocetine], the ALDHbr stood at 1.15.

Take `NS(=O)(=O)c1cc(C(=O)O)cc(N2CCCC2)c1Oc1ccccc1` [Piretanide]: the ALDHbr was found to be 1.04.

Turning to `CN[C@@H]1[C@H](O[C@H]2[C@H](O[C@H]3[C@H](O)[C@@H](O)[C@H](N=C(N)N)[C@@H](O)[C@@H]3N=C(N)N)O[C@@H](C)[C@]2(O)C=O)O[C@@H](CO)[C@H](O)[C@H]1O` [Streptomycin sulfate], the ALDHbr was 1.02.

Consider `CN1CCC(=C2c3ccccc3CCc3sccc32)CC1` [Pizotifen malate], for which the ALDHbr was determined as 1.42.

`Cc1cc(-n2c(=O)[nH]c(=O)n(C)c2=O)ccc1Oc1ccc(SC(F)(F)F)cc1` [Toltrazuril]: the ALDHbr is 1.03.

Regarding `NCCCC(O)(P(=O)(O)O)P(=O)(O)O` [Alendronate sodium], the ALDHbr worked out at 1.12.

In the case of `C#C[C@]1(OC(C)=O)CC[C@H]2[C@@H]3CCC4=CC(=NO)CC[C@@H]4[C@H]3CC[C@@]21CC` (mixture of isomers) [Norgestimate], the ALDHbr stood at 0.898.

For `CC(CN(C)C)C(C)(O)Cc1ccc(Cl)cc1` (stereo unspecified) [Clobutinol hydrochloride], the ALDHbr worked out at 1.05.

Consider `CCC(=O)O[C@]1(C(=O)CCl)[C@@H](C)C[C@H]2[C@@H]3CCC4=CC(=O)C=C[C@]4(C)[C@@]3(F)[C@@H](O)C[C@@]21C` [Clobetasol propionate], for which the ALDHbr turned out to be 0.855.

As to `CN1CCC(=C2c3ccccc3C=Cc3ccccc32)CC1` [Cyproheptadine hydrochloride], the ALDHbr was 0.997.

As to `C[C@@H](CN1CC(=O)NC(=O)C1)N1CC(=O)NC(=O)C1` [Dexrazoxane hydrochloride], the ALDHbr came to 1.41.

As for `CC1COc2c(N3CCN(C)CC3)c(F)cc3c(=O)c(C(=O)O)cn1c23` (stereo unspecified) [Ofloxacin], the ALDHbr stood at 1.17.

With `CC1(C)O[C@@H]2C[C@H]3[C@@H]4C[C@H](F)C5=CC(=O)CC[C@]5(C)[C@H]4[C@@H](O)C[C@]3(C)[C@]2(C(=O)CO)O1` [Flurandrenolide], the ALDHbr came out at 0.923.

Consider `CCCCNc1ccc(C(=O)OCCN(C)C)cc1`, for which the ALDHbr amounted to 1.03.

Take `O=C(O[C@@H]1C[C@@H]2C[C@H]3C[C@H](C1)N2CC3=O)c1c[nH]c2ccccc12` [Dolasetron mesilate]: the ALDHbr is 0.833.

With `Cn1c(=O)c2c(ncn2CC(O)CO)n(C)c1=O` (stereo unspecified) [Diprophylline], the ALDHbr is 0.893.

For the molecule `CC(=O)O[C@H]1C[C@@H]2CC[C@@H]3[C@H](CC[C@@]4(C)[C@H]3C[C@H]([N+]3(C)CCCCC3)[C@@H]4OC(C)=O)[C@@]2(C)C[C@@H]1N1CCCCC1` [Vecuronium bromide], the ALDHbr came to 1.15.

With `Fc1ccc(C(c2ccc(F)cc2)N2CCN(C/C=C/c3ccccc3)CC2)cc1` [Flunarizine dihydrochloride], the ALDHbr came out at 0.471.

`C=C1c2cccc(O)c2C(O)=C2C(=O)[C@]3(O)C(O)=C(C(N)=O)C(=O)[C@@H](N(C)C)[C@@H]3[C@@H](O)[C@H]12` [Methacycline hydrochloride]: the ALDHbr amounted to 1.28.
